A lower IC50 marks a more sensitive line; fits outside the tested doses are given as limits. The AUC spans the tested range (256-fold, ending at the top dose) of the same fit; values near 1 show little effect. Where the top dose is marked as inferred, it was derived from the fitted curves, not read from the paper. For some assays here: Where an entry number is given, a second screen of the drug exists; the two often differ.
What was measured:
Experiment in all cases: Viability of human cancer cell lines after 72 h of drug (GDSC screen)
GSK269962A = compound: CCn1c(-c2nonc2N)nc2cnc(Oc3cccc(NC(=O)c4ccc(OCCN5CCOCC5)cc4)c3)cc21 [GSK269962A]; settings: top dose inferred
Protocol: (§1)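 Human cancer cell lines in 384-well plates, medium with 10% serum, drug for 72 h over a 256-fold dose range (nine 2-fold or five 4-fold steps up to the top dose). Adherent lines were fixed and stained with the nucleic acid dye Syto60, suspension lines read with resazurin; signal relative to control wells, capped at 0 and 100%. One two-parameter sigmoid per drug and line, fitted in a mixed model over all curves with the slope shared within a line.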

Thapsigargin = compound: C/C=C(/C)C(=O)O[C@H]1C(C)=C2[C@H]([C@@H]1OC(=O)CCCCCCC)[C@@](C)(OC(C)=O)C[C@H](OC(=O)CCC)[C@@]1(O)[C@H]2OC(=O)[C@@]1(C)O [Thapsigargin]; settings: top dose 0.512 µM; top dose inferred
Protocol: as §1

(5Z)-7-Oxozeaenol = compound: COc1cc(O)c2c(c1)/C=C/C[C@H](O)[C@H](O)C(=O)/C=C\C[C@H](C)OC2=O [(5Z)-7-Oxozeaenol]; settings: top dose 10 µM; top dose inferred
Protocol: as §1

MPS-1-IN-1 = compound: COc1cc(N2CCC(O)CC2)ccc1Nc1cc(Nc2ccccc2S(=O)(=O)C(C)C)c2cc[nH]c2n1 [MPS-1-IN-1]; settings: top dose 20 µM; top dose inferred
Protocol: as §1

CP466722 = compound: COc1cc2ncnc(-n3nc(-c4ccccn4)nc3N)c2cc1OC [CP466722]; settings: top dose 16 µM; top dose inferred
Protocol: as §1

Zibotentan = compound: COc1nc(C)cnc1NS(=O)(=O)c1cccnc1-c1ccc(-c2nnco2)cc1 [Zibotentan]; settings: top dose 20 µM; top dose inferred
Protocol: as §1

QL-X-138 = compound: C=CC(=O)Nc1cc(-n2c(=O)ccc3cnc4ccc(-c5cn[nH]c5)cc4c32)ccc1C [QL-X-138]; settings: top dose 10.24 µM; top dose inferred
Protocol: as §1

ABT-869 = compound: Cc1ccc(F)c(NC(=O)Nc2ccc(-c3cccc4[nH]nc(N)c34)cc2)c1 [ABT-869]; settings: top dose 1.024 µM; top dose inferred
Protocol: as §1

CHIR-99021 = compound: Cc1cnc(-c2cnc(NCCNc3ccc(C#N)cn3)nc2-c2ccc(Cl)cc2Cl)[nH]1 [CHIR-99021]
Protocol: as §1

[1] = top dose 5 µM, screen: GDSC drug entry 1192
[2] = top dose 2.56 µM, screen: GDSC drug entry 154
[3] = top dose 10 µM, screen: GDSC drug entry 1241, top dose inferred
[4] = top dose 2.5 µM, screen: GDSC drug entry 127

Cell Line | AUC (GSK269962A; [1]) | IC50 (GSK269962A; [1]) [µM] | AUC (Thapsigargin) | IC50 (Thapsigargin) [µM] | AUC ((5Z)-7-Oxozeaenol) | IC50 ((5Z)-7-Oxozeaenol) [µM] | AUC (MPS-1-IN-1) | IC50 (MPS-1-IN-1) [µM] | AUC (CP466722) | IC50 (CP466722) [µM] | AUC (Zibotentan) | IC50 (Zibotentan) [µM] | AUC (QL-X-138) | IC50 (QL-X-138) [µM] | AUC (ABT-869) | IC50 (ABT-869) [µM] | AUC (CHIR-99021; [2]) | IC50 (CHIR-99021; [2]) [µM] | AUC (CHIR-99021; [3]) | IC50 (CHIR-99021; [3]) [µM] | AUC (GSK269962A; [4]) | IC50 (GSK269962A; [4]) [µM]
GP5d (large intestine, adherent) | 0.978 | > 5 | 0.513 | 0.0346 | 0.74 | 2.77 | 0.885 | 17.8 | 0.851 | 10.3 | 0.984 | > 20 | 0.872 | 7.99 | 0.891 | 0.97 | 0.99 | > 2.56 | 0.923 | > 10 |  | 
H2803 (mesothelioma, adherent) | 0.976 | > 5 | 0.571 | 0.0517 | 0.725 | 3.06 | 0.961 | > 20 | 0.882 | > 16 | 0.976 | > 20 | 0.886 | > 10.2 | 0.976 | > 1.02 | 0.972 | > 2.56 | 0.956 | > 10 |  | 
H2804 (mesothelioma, adherent) | 0.982 | > 5 | 0.289 | 0.00762 | 0.882 | > 10 | 0.983 | > 20 | 0.849 | 13.8 | 0.983 | > 20 | 0.877 | > 10.2 | 0.983 | > 1.02 | 0.924 | > 2.56 | 0.664 | 1.88 |  | 
H2810 (mesothelioma, adherent) | 0.943 | > 5 |  |  | 0.808 | 5.84 |  |  |  |  |  |  |  |  |  |  |  |  | 0.851 | 8.93 |  | 
H2818 (mesothelioma, adherent) | 0.946 | > 5 | 0.924 | > 0.512 | 0.747 | 3.26 | 0.987 | > 20 | 0.944 | > 16 | 0.989 | > 20 | 0.962 | > 10.2 | 0.985 | > 1.02 | 0.981 | > 2.56 | 0.955 | > 10 |  | 
KOSC-2 (head and neck, adherent) | 0.905 | > 5 | 0.882 | > 0.512 | 0.711 | 2.54 | 0.939 | > 20 |  |  | 0.985 | > 20 | 0.944 | > 10.2 | 0.978 | > 1.02 | 0.983 | > 2.56 | 0.933 | > 10 |  | 
NCI-H1650 (lung adenocarcinoma, adherent) | 0.965 | > 5 |  |  | 0.752 | 4.26 |  |  |  |  |  |  |  |  |  |  |  |  | 0.963 | > 10 |  | 
NCI-H2170 (lung squamous cell carcinoma, adherent) | 0.782 | 2.19 | 0.233 | 0.00514 | 0.833 | 6.9 | 0.985 | > 20 | 0.934 | > 16 | 0.986 | > 20 | 0.953 | > 10.2 | 0.983 | > 1.02 |  |  |  |  |  | 
NCI-H2228 (lung adenocarcinoma, adherent) | 0.91 | > 5 | 0.299 | 0.00645 | 0.838 | > 10 | 0.669 | 4.73 | 0.857 | > 16 | 0.972 | > 20 | 0.786 | 7.15 | 0.968 | > 1.02 |  |  |  |  |  | 
SNU-175 (large intestine, suspension) |  |  |  |  |  |  | 0.743 | 5.89 | 0.657 | 2.64 | 0.982 | > 20 | 0.689 | 2.09 | 0.979 | > 1.02 |  |  |  |  |  | 
SNU-475 (liver, adherent) |  |  | 0.912 | > 0.512 |  |  | 0.899 | > 20 | 0.879 | 13.1 | 0.991 | > 20 | 0.863 | 7.2 | 0.988 | > 1.02 | 0.99 | > 2.56 |  |  |  | 
SNU-1040 (large intestine, adherent) | 0.941 | > 5 |  |  | 0.926 | > 10 | 0.853 | > 20 | 0.669 | 3.49 | 0.981 | > 20 | 0.773 | 5.4 | 0.975 | > 1.02 |  |  | 0.98 | > 10 |  | 
SW1116 (large intestine, adherent) | 0.949 | > 5 |  |  | 0.603 | 1.32 | 0.981 | > 20 | 0.911 | > 16 | 0.984 | > 20 | 0.982 | > 10.2 | 0.985 | > 1.02 |  |  | 0.937 | > 10 |  | 
UACC-812 (breast, adherent) |  |  | 0.989 | > 0.512 |  |  | 0.976 | > 20 | 0.84 | 10.4 | 0.99 | > 20 | 0.954 | > 10.2 | 0.991 | > 1.02 | 0.991 | > 2.56 |  |  | 0.988 | > 2.5
YMB-1-E (breast, adherent) |  |  |  |  |  |  | 0.898 | > 20 | 0.877 | > 16 | 0.981 | > 20 | 0.648 | 1.92 | 0.98 | > 1.02 |  |  |  |  |  | 
